# Measurements reported in the supplement of paper PMC8728848.
# The other results are listed elsewhere or left out.
# B1: CML1 (Coprinopsis cinerea) (protein)
# chain: MAIFHTGSELFIITRGPGKLTLLTWGGLNNLRSVIGAIPTENTGVTKWAVSFSHNYTRFSFIWEGQGEACYQIGNGLTRSPVGRSWSSSSTIHWGSSTVITEDVTSVVPGAVNRDKVTTAYALPDNL
# Columns and labels:
# Assay in all cases: glycan array binding signal (z-score within array); higher = stronger binding
# Settings in all cases: glycan notation: IUPAC condensed, linker removed
# [1] = target: Neu5Ac(a2-3)Gal(b1-4)GlcNAc(b1-3)[Neu5Ac(a2-3)Gal(b1-4)GlcNAc(b1-6)]GalNAc
# Method in brief: (§1)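 Glycan array data were curated from 3228 arrays in the Consortium for Functional Glycomics database and kept only where the protein sequence was available. Glycan names were converted to IUPAC-condensed notation, and columns mapping to the same glycan were averaged. The binding signal is a within-array Z-score, averaged across arrays of the same protein sequence at different concentrations or buffers and across linkers. Negative Z-scores can be read as non-binding.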
# [2] = target: Neu5Ac(a2-3)Gal(b1-4)GlcNAc(b1-6)GalNAc
# Method in brief: as §1
# [3] = target: Neu5Ac(a2-3)Gal(b1-4)GlcNAc(b1-6)[Gal(b1-3)]GalNAc
# Method in brief: as §1
# [4] = target: Neu5Ac(a2-3)Gal(b1-4)GlcNAc(b1-6)[Neu5Ac(a2-3)Gal(b1-3)]GalNAc
# Method in brief: as §1
# [5] = target: Neu5Ac(a2-3)Gal(b1-4)GlcNAc6S
# Method in brief: as §1
# [6] = target: Neu5Ac(a2-3)Gal(b1-4)[Fuc(a1-3)]GlcNAc
# Method in brief: as §1
# [7] = target: Neu5Ac(a2-3)Gal(b1-4)[Fuc(a1-3)]GlcNAc(b1-2)Man
# Method in brief: as §1
# [8] = target: Neu5Ac(a2-3)Gal(b1-4)[Fuc(a1-3)]GlcNAc(b1-3)Gal
# Method in brief: as §1
# [9] = target: Neu5Ac(a2-3)Gal(b1-4)[Fuc(a1-3)]GlcNAc(b1-3)Gal(b1-4)GlcNAc
# Method in brief: as §1
# [10] = target: Neu5Ac(a2-3)Gal(b1-4)[Fuc(a1-3)]GlcNAc(b1-3)Gal(b1-4)[Fuc(a1-3)]GlcNAc(b1-3)Gal(b1-4)[Fuc(a1-3)]GlcNAc
# Method in brief: as §1
# [11] = target: Neu5Ac(a2-3)Gal(b1-4)[Fuc(a1-3)]GlcNAc(b1-3)GalNAc
# Method in brief: as §1
# [12] = target: Neu5Ac(a2-3)Gal(b1-4)[Fuc(a1-3)]GlcNAc(b1-6)[Gal(b1-3)]GalNAc
# Method in brief: as §1
# [13] = target: Neu5Ac(a2-3)Gal(b1-4)[Fuc(a1-3)]GlcNAc(b1-6)[Neu5Ac(a2-3)Gal(b1-3)]GalNAc
# Method in brief: as §1
# [14] = target: Neu5Ac(a2-3)Gal(b1-4)[Fuc(a1-3)]GlcNAc6S
# Method in brief: as §1
# [15] = target: Neu5Ac(a2-3)Gal6S(b1-4)GlcNAc
# Method in brief: as §1
# [16] = target: Neu5Ac(a2-3)Gal6S(b1-4)[Fuc(a1-3)]GlcNAc
# Method in brief: as §1
# [17] = target: Neu5Ac(a2-3)GalNAc
# Method in brief: as §1
# [18] = target: Neu5Ac(a2-3)GalNAc(b1-4)GlcNAc
# Method in brief: as §1
# [19] = target: Neu5Ac(a2-3)[GalNAc(b1-4)]Gal(b1-4)Glc
# Method in brief: as §1
# [20] = target: Neu5Ac(a2-3)[GalNAc(b1-4)]Gal(b1-4)GlcNAc
# Method in brief: as §1
# [21] = target: Neu5Ac(a2-3)[GalNAc(b1-4)]Gal(b1-4)GlcNAc(b1-3)GalNAc
# Method in brief: as §1
# [22] = target: Neu5Ac(a2-3)[Neu5Ac(a2-6)]GalNAc
# Method in brief: as §1
# [23] = target: Neu5Ac(a2-6)Gal
# Method in brief: as §1
# [24] = target: Neu5Ac(a2-6)Gal(b1-3)GlcNAc(b1-3)[Gal(b1-4)GlcNAc(b1-6)]Gal(b1-4)Glc
# Method in brief: as §1
# [25] = target: Neu5Ac(a2-6)Gal(b1-4)Glc
# Method in brief: as §1
# [26] = target: Neu5Ac(a2-6)Gal(b1-4)GlcNAc
# Method in brief: as §1
# [27] = target: Neu5Ac(a2-6)Gal(b1-4)GlcNAc(b1-2)Man
# Method in brief: as §1
# [28] = target: Neu5Ac(a2-6)Gal(b1-4)GlcNAc(b1-2)Man(a1-3)Man(b1-4)GlcNAc(b1-4)GlcNAc
# Method in brief: as §1
# [29] = target: Neu5Ac(a2-6)Gal(b1-4)GlcNAc(b1-2)Man(a1-3)[Gal(b1-4)GlcNAc(b1-2)Man(a1-6)]Man(b1-4)GlcNAc(b1-4)GlcNAc
# Method in brief: as §1
# [30] = target: Neu5Ac(a2-6)Gal(b1-4)GlcNAc(b1-2)Man(a1-3)[GlcNAc(b1-2)Man(a1-6)]Man(b1-4)GlcNAc(b1-4)GlcNAc
# Method in brief: as §1
# [31] = target: Neu5Ac(a2-6)Gal(b1-4)GlcNAc(b1-2)Man(a1-3)[GlcNAc(b1-4)][Neu5Ac(a2-6)Gal(b1-4)GlcNAc(b1-2)Man(a1-6)]Man(b1-4)GlcNAc(b1-4)GlcNAc
# Method in brief: as §1
# [32] = target: Neu5Ac(a2-6)Gal(b1-4)GlcNAc(b1-2)Man(a1-3)[Man(a1-6)]Man(b1-4)GlcNAc(b1-4)GlcNAc
# Method in brief: as §1
# [33] = target: Neu5Ac(a2-6)Gal(b1-4)GlcNAc(b1-2)Man(a1-3)[Neu5Ac(a2-3)Gal(b1-4)GlcNAc(b1-2)Man(a1-6)]Man(b1-4)GlcNAc(b1-4)GlcNAc
# Method in brief: as §1
# [34] = target: Neu5Ac(a2-6)Gal(b1-4)GlcNAc(b1-2)Man(a1-3)[Neu5Ac(a2-6)Gal(b1-4)GlcNAc(b1-2)Man(a1-6)]Man(b1-4)GlcNAc(b1-4)GlcNAc
# Method in brief: as §1
# [35] = target: Neu5Ac(a2-6)Gal(b1-4)GlcNAc(b1-2)Man(a1-3)[Neu5Ac(a2-6)Gal(b1-4)GlcNAc(b1-2)Man(a1-6)]Man(b1-4)GlcNAc(b1-4)[Fuc(a1-6)]GlcNAc
# Method in brief: as §1
# [36] = target: Neu5Ac(a2-6)Gal(b1-4)GlcNAc(b1-2)Man(a1-6)Man(b1-4)GlcNAc(b1-4)GlcNAc
# Method in brief: as §1
# [37] = target: Neu5Ac(a2-6)Gal(b1-4)GlcNAc(b1-2)Man(a1-6)[Gal(b1-4)GlcNAc(b1-2)Man(a1-3)]Man(b1-4)GlcNAc(b1-4)GlcNAc
# Method in brief: as §1
# [38] = target: Neu5Ac(a2-6)Gal(b1-4)GlcNAc(b1-2)Man(a1-6)[GlcNAc(b1-2)Man(a1-3)]Man(b1-4)GlcNAc(b1-4)GlcNAc
# Method in brief: as §1
# [39] = target: Neu5Ac(a2-6)Gal(b1-4)GlcNAc(b1-2)Man(a1-6)[Man(a1-3)]Man(b1-4)GlcNAc(b1-4)GlcNAc
# Method in brief: as §1
# [40] = target: Neu5Ac(a2-6)Gal(b1-4)GlcNAc(b1-2)[Neu5Ac(a2-6)Gal(b1-4)GlcNAc(b1-4)]Man(a1-3)[GlcNAc(b1-4)][Neu5Ac(a2-6)Gal(b1-4)GlcNAc(b1-2)[Neu5Ac(a2-6)Gal(b1-4)GlcNAc(b1-6)]Man(a1-6)]Man(b1-4)GlcNAc(b1-4)GlcNAc
# Method in brief: as §1
# [41] = target: Neu5Ac(a2-6)Gal(b1-4)GlcNAc(b1-2)[Neu5Ac(a2-6)Gal(b1-4)GlcNAc(b1-4)]Man(a1-3)[GlcNAc(b1-4)][Neu5Ac(a2-6)Gal(b1-4)GlcNAc(b1-4)Man(a1-6)]Man(b1-4)GlcNAc(b1-4)GlcNAc
# Method in brief: as §1
# [42] = target: Neu5Ac(a2-6)Gal(b1-4)GlcNAc(b1-2)[Neu5Ac(a2-6)Gal(b1-4)GlcNAc(b1-6)]Man(a1-6)[Neu5Ac(a2-6)Gal(b1-4)GlcNAc(b1-2)Man(a1-3)][GlcNAc(b1-4)]Man(b1-4)GlcNAc(b1-4)GlcNAc
# Method in brief: as §1
# [43] = target: Neu5Ac(a2-6)Gal(b1-4)GlcNAc(b1-3)Gal(b1-3)GlcNAc
# Method in brief: as §1
# [44] = target: Neu5Ac(a2-6)Gal(b1-4)GlcNAc(b1-3)Gal(b1-4)GlcNAc
# Method in brief: as §1
# [45] = target: Neu5Ac(a2-6)Gal(b1-4)GlcNAc(b1-3)Gal(b1-4)GlcNAc(b1-2)Man(a1-3)[Neu5Ac(a2-6)Gal(b1-4)GlcNAc(b1-3)Gal(b1-4)GlcNAc(b1-2)Man(a1-6)]GalNAc
# Method in brief: as §1
binder,measurement,setting,value
B1,glycan array binding signal (z-score),[1],-0.315
same,glycan array binding signal (z-score),[2],-0.368
same,glycan array binding signal (z-score),[3],-0.313
same,glycan array binding signal (z-score),[4],-0.364
same,glycan array binding signal (z-score),[5],-0.324
same,glycan array binding signal (z-score),[6],2.61
same,glycan array binding signal (z-score),[7],3.13
same,glycan array binding signal (z-score),[8],4.46
same,glycan array binding signal (z-score),[9],2.41
same,glycan array binding signal (z-score),[10],1.8
same,glycan array binding signal (z-score),[11],-0.149
same,glycan array binding signal (z-score),[12],-0.178
same,glycan array binding signal (z-score),[13],-0.119
same,glycan array binding signal (z-score),[14],4.04
same,glycan array binding signal (z-score),[15],6.01
same,glycan array binding signal (z-score),[16],3.49
same,glycan array binding signal (z-score),[17],-0.344
same,glycan array binding signal (z-score),[18],-0.345
same,glycan array binding signal (z-score),[19],-0.339
same,glycan array binding signal (z-score),[20],-0.353
same,glycan array binding signal (z-score),[21],-0.315
same,glycan array binding signal (z-score),[22],-0.338
same,glycan array binding signal (z-score),[23],-0.348
same,glycan array binding signal (z-score),[24],-0.348
same,glycan array binding signal (z-score),[25],-0.343
same,glycan array binding signal (z-score),[26],-0.352
same,glycan array binding signal (z-score),[27],-0.315
same,glycan array binding signal (z-score),[28],-0.332
same,glycan array binding signal (z-score),[29],-0.336
same,glycan array binding signal (z-score),[30],-0.337
same,glycan array binding signal (z-score),[31],-0.351
same,glycan array binding signal (z-score),[32],-0.308
same,glycan array binding signal (z-score),[33],-0.324
same,glycan array binding signal (z-score),[34],-0.336
same,glycan array binding signal (z-score),[35],-0.296
same,glycan array binding signal (z-score),[36],-0.324
same,glycan array binding signal (z-score),[37],-0.337
same,glycan array binding signal (z-score),[38],-0.359
same,glycan array binding signal (z-score),[39],-0.319
same,glycan array binding signal (z-score),[40],-0.321
same,glycan array binding signal (z-score),[41],-0.331
same,glycan array binding signal (z-score),[42],-0.334
same,glycan array binding signal (z-score),[43],-0.35
same,glycan array binding signal (z-score),[44],-0.361
same,glycan array binding signal (z-score),[45],-0.308
